PubChem BioAssay AID651820 (National Center for Advancing Translational Sciences (NCATS), 2012)
Among all 340,000 compounds or so, about 12,000 (3.5%) were called active. The shares of active, inactive and inconclusive entries below differ from those in the screen. Calls come from the whole dose curve; as a rule, active = well fitted inhibition curve with a large enough effect; inconclusive = small, poorly fitted or top-dose-only effect, or another doubt; inactive = no such curve, though single readings can be large or run the other way. Potencies of inconclusive entries are left out as doubtful fits.

assay: qHTS Assay for Inhibitors of Hepatitis C Virus (HCV); conditions: Huh7.5.1 HCVcc-Cre (HCVcc is cell-culture hepatitis C virus) infection, luciferase reporter, 44 h; activity change, negative = inhibition: at 41.8 µM (top of the series) unless noted
Summary of the method: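 After 44 h co-culture of compound, cells and HCVcc-Cre (~0.5 moi), substrate is added for 15 min at room temperature and luciferase measured over 15 sec. Cells were seeded at 1,000/well and pre-cultured 4 h.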
% is set by controls: 0 for no effect and ±100 for the full control effect; potency is the fitted concentration of half-maximal effect; tags give direction and shape of the fitted curve.

Compound	Potency	activity change, negative = inhibition
O=C(N/N=C/c1cccc(OC(=O)c2cccc(Br)c2)c1)c1ccncc1	inactive	–
COC1=C(Nc2ccc(OC)cc2)C(=O)C(OC)=C(Nc2ccc(OC)cc2)C1=O	inactive	–
O=c1[nH]c2ccccc2nc1-c1c[nH]c2ccccc12	inconclusive [inhibitor, single point]	–
C=CCn1c(=S)[nH]c2cc(-c3ccccc3)sc2c1=O	inactive	–
COc1ccc(CCN2C(=O)C(Oc3ccccc3C)C2c2ccc3c(c2)OCO3)cc1 (centres undefined)	inconclusive [inhibitor, single point]	–
CCCCN(CCCC)CCNC(=O)c1cn(CC)c2ccc(S(=O)(=O)N3CCc4ccccc4C3)cc2c1=O	inconclusive [inhibitor, single point]	–
O=C(c1cccc(Cl)c1)N1CCN(c2ncnc3c2cnn3-c2ccccc2)CC1	inactive	–
COc1cc(/C=N/N(C)C)ccc1OC(=O)c1ccco1	inactive	–
COc1ccc(/C=N/NC(=O)c2cccc(O)c2)cc1Cn1nc(C)c([N+](=O)[O-])c1C	inconclusive [inhibitor, partial curve]	–
CCOc1cc(-c2nc(C)c(C(C)=O)n2O)ccc1OCC(=O)Nc1cccc(C)c1	inconclusive [inhibitor, single point]	–
O=C(CCc1nc2ccccc2[nH]1)Nc1ccc2c(c1)OCO2	inactive	–
CCNCCC(=O)N1c2ccccc2Sc2ccc(NC(=O)OCC)cc21	active: 12.6 µM	–
Cn1cnc(C(=O)N2CCN(c3ccccc3)CC2)c1C(=O)N1CCN(c2ccccc2)CC1	inconclusive [inhibitor, full curve]	–
O=C(COC(=O)c1cccc(S(=O)(=O)N2CCOCC2)c1)Nc1ncc(Cl)cc1Cl	inactive	–
O=C(c1ccc(S(=O)(=O)c2ccccc2Cl)c([N+](=O)[O-])c1)N1CCCCCC1	inconclusive [inhibitor, single point]	–
Cc1ccc(N/N=C/c2ccc3c(c2)OCCO3)cc1Cl	inactive	–
Cc1cc(NC(=O)CSc2nncn2N)no1	inactive	–
Cc1cc(C)c(S(=O)(=O)NCc2ccc3c(c2)OCO3)c(C)c1	inconclusive [inhibitor, single point]	–
O=C(Nc1ccccc1-c1nc2ccccc2s1)C1=COCCO1	inconclusive [inhibitor, single point]	–
CCOC(=O)N1CCN(C(=O)CCn2c(=S)[nH]c3ccccc3c2=O)CC1	inconclusive [inhibitor, single point]	–
COC(=O)C1=Nc2ccccc2/C1=C\c1c(O)n(C)c(=O)n(C)c1=O	inconclusive [inhibitor, single point]	–
Cc1cc(-c2ccccc2)n2nc(C)c(C#N)c2n1	inconclusive [inhibitor, partial curve]	–
Cc1[nH]c2ccccc2c1/C=N/Nc1ccc([N+](=O)[O-])cc1	active: 2 µM	–
CCOC(=O)c1c(NC(=O)CSc2n[nH]c(CNc3ccccc3)n2)sc(C)c1C	inconclusive [inhibitor, full curve]	–
c1ccc(-c2csc3ncnc(N4CCc5ccccc5C4)c23)cc1	inconclusive [inhibitor, single point]	–

Compound	Potency	activity change, negative = inhibition
COc1ccc(/C=C2\CN(Cc3ccccc3)C/C(=C\c3ccc(OC)cc3OC)C2=O)c(OC)c1	inconclusive [inhibitor, partial curve]	–
CCN(CC(=O)Nc1ccc(OC)cc1)C(=O)c1ccc(=O)n(Cc2ccccc2)n1	inactive	–
CCCC(=O)Nc1ccccc1Sc1ncnc2scc(-c3ccccc3)c12	inactive	–
CC1CC(CN)CC(CO)C1 (centres undefined)	inconclusive [inhibitor, partial curve]	–
CN(CCc1ccccn1)C1CC(=O)N(c2ccc(Cl)cc2)C1=O (centres undefined)	inactive	–
O=C(CCc1ccccc1)Nc1cc(Cl)ccc1O	inconclusive [inhibitor, single point]	–
COc1cccc(-c2ccc(NC(=O)C3CCCN(Cc4cnc(C)n4C)C3)cc2)c1 (centres undefined)	inconclusive [inhibitor, full curve]	–
CCN(CC(=O)NCc1ccc(F)cc1)C(=O)/C=C/c1ccc(S(=O)(=O)N(CC)CC)cc1	inconclusive [inhibitor, full curve]	–
COc1cc(NC(=O)Cc2c(C(=O)O)n(C)c3ccccc23)cc(OC)c1OC	inactive	–
CC1CCN(C(=O)c2cccc(S(=O)(=O)N3CCCc4ccccc43)c2)CC1	inconclusive [inhibitor, single point]	–
COc1cc(CNCCSc2nnnn2C)cc(Br)c1OCc1ccc(F)cc1	active: 10 µM	–
COc1ccc(S(=O)(=O)NCC2CCCN(Cc3ccc(O)cc3)C2)cc1 (centres undefined)	inactive	–
CCOCCn1c(CN2CCN(c3cccc(Cl)c3)CC2)nc2c1c(=O)n(C)c(=O)n2C	active: 15.8 µM	–
Cc1ccc(C)c(N2CN(Cc3cccnc3)CNC2=S)c1	inactive	–
Cc1ccnc(NCc2c(O)ccc3ccccc23)c1	inactive	–
COc1ccccc1N1CCN(C(=O)c2ccc3c(=O)n(Cc4ccc5c(c4)OCO5)c(=O)[nH]c3c2)CC1	inconclusive [inhibitor, single point]	–
COc1ccc(NC(=O)c2cc(S(=O)(=O)NCC3COc4ccccc4O3)ccc2F)cc1 (centres undefined)	inconclusive [inhibitor, single point]	–
COc1ccc2c(c1)c(C(=O)N/N=C/c1cccs1)c(C)n2C	inconclusive [inhibitor, single point]	–
O=C(c1nc2ccc(Cl)cn2c1CNCCn1ccnc1)N1CCCCCCC1	inactive	–
N#CCCN(C(=O)CCl)c1cccc(Cl)c1	inconclusive [inhibitor, single point]	–
Cc1ccc(NC(=O)CSc2nnc(Cn3c(=O)sc4ccccc43)n2C)cc1	inconclusive [inhibitor, single point]	–
CCOC(=O)N1CCN(c2nc3c(C)cccn3c(=O)c2C=O)CC1	inactive	–
CCOc1ccc(C(=O)NCC(=O)OCc2c(F)cccc2Cl)cc1OCC	inactive	–
COc1ccc(Cl)cc1S(=O)(=O)N1CCN(C(=O)c2n[nH]c(=O)c3ccccc23)CC1	inconclusive [inhibitor, partial curve]	–
COc1ccc([C@@H]2CC(=O)c3c(O)cc(O)cc3O2)cc1O	inactive	–

Compound	Potency	activity change, negative = inhibition
CCCCc1ccc2[nH]cc(CCN)c2c1	inconclusive [inhibitor, single point]	–
CCc1ccc(C(=O)Nc2nnn(CC)n2)cc1	inactive	–
CC[C@]12c3[nH]c4ccccc4c3CCN1C(=O)C(CC(=O)NCC13CC4CC(CC(C4)C1)C3)C[C@@H]2C(=O)N1CCN(C(=O)C2CC2)CC1 (some centres undefined)	active: 22.4 µM	–
CC(C)[C@H](NC(=O)c1ccccc1Br)C(=O)OCc1nc2ccsc2c(=O)[nH]1	–	inconclusive: -71.6% [inhibitor]
C[C@@H]1C=C[C@](Cc2ccccc2)(C(=O)NCC2CC2)N1C(=O)c1ccccc1	–	inactive: -9.69% [at 8.37 µM]
CSc1ccccc1NC(=O)Nc1cccc(Cl)c1C	inconclusive [inhibitor, single point]	–
Cc1cccc(NC(NC(=O)c2ccccc2[N+](=O)[O-])C(Cl)(Cl)Cl)c1 (centres undefined)	inactive	–
CCOC(=O)c1sc2nc(SCC(=O)NCc3ccco3)n(Cc3ccccc3)c(=O)c2c1C	inactive	–
Cc1cc(/C=C(/C#N)c2cccc(F)c2)c(C)n1-c1cccnc1	inconclusive [inhibitor, partial curve]	–
CC(=O)Nc1ccc(S(=O)(=O)N2C(C)CCCC2C)cc1 (centres undefined)	inactive	–
COc1ccc(CCN2C(=O)CC(N3CCN(C/C=C/c4ccccc4)CC3)C2=O)cc1OC (centres undefined)	inconclusive [inhibitor, partial curve]	–
O=C1N/C(=N/N=C/c2ccco2)SC1Cc1ccccc1 (centres undefined)	inactive	–
CC(C)OC(=O)Nc1ccc(-c2ccc(NC(=O)OC(C)C)cc2Cl)c(Cl)c1	inactive	–
CCOC(=O)c1c(NC(=O)c2ccc(S(=O)(=O)N3CCOCC3)cc2)sc2c1CCN(C(C)C)C2	inconclusive [inhibitor, partial curve, poor fit]	–
CCCCN(C)Cc1c(C)[nH]c2ccccc2c1=O	inconclusive [inhibitor, single point]	–
O=C(CCc1nc(-c2ccccc2Cl)no1)NCc1ccco1	inactive	–
COc1ccc(-n2nc(C(=O)NCC(=O)NCCCN3CCC(C)CC3)c3ccccc3c2=O)cc1Cl	inconclusive [inhibitor, partial curve]	–
CCCCC(=O)Nc1ccc(C2C(=O)c3ccccc3C2=O)cc1	active: 10 µM	–
CCN1CCSc2ccc(C(=O)Nc3ccc(NC(C)=O)cc3)cc21	inconclusive [inhibitor, partial curve]	–
Fc1ccc(CSc2nc3ncccc3[nH]2)cc1	inactive	–
COc1ccccc1N1CCN(C(=O)c2ccc(Cl)c(S(=O)(=O)N3CCCC3)c2)CC1	active: 11.2 µM	–
Cc1cc(C)n(CC(=O)NCc2cc(-c3nn(C)c(=O)c4ccccc34)ccc2C)n1	inconclusive [inhibitor, partial curve]	–
CC(=O)Nc1cccc(-c2nc3ccc(NC(C)=O)cc3[nH]2)c1	inactive	–
Cc1[nH]n(-c2ccccc2)c(=O)c1N=Nc1ccccc1	inconclusive [inhibitor, full curve]	–
